# Measured values taken from article PMC4336329 (PLoS ONE, 2015).
# About 14,000 (4.5%) of roughly 310,000 compounds showed an effect of 50% or more. Effects have a minus sign here. This is one part of the list.
# Biological target: human ether-à-go-go-related gene (hERG) potassium channel (human, UniProt Q12809)
# Test: primary screen, population patch clamp on CHO cells stably expressing hERG
# 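Further: peak tail current of the secondary pulse compared with the same well before compound.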
# Chain of human ether-à-go-go-related gene (hERG) potassium channel (Q12809 whole entry, looked up): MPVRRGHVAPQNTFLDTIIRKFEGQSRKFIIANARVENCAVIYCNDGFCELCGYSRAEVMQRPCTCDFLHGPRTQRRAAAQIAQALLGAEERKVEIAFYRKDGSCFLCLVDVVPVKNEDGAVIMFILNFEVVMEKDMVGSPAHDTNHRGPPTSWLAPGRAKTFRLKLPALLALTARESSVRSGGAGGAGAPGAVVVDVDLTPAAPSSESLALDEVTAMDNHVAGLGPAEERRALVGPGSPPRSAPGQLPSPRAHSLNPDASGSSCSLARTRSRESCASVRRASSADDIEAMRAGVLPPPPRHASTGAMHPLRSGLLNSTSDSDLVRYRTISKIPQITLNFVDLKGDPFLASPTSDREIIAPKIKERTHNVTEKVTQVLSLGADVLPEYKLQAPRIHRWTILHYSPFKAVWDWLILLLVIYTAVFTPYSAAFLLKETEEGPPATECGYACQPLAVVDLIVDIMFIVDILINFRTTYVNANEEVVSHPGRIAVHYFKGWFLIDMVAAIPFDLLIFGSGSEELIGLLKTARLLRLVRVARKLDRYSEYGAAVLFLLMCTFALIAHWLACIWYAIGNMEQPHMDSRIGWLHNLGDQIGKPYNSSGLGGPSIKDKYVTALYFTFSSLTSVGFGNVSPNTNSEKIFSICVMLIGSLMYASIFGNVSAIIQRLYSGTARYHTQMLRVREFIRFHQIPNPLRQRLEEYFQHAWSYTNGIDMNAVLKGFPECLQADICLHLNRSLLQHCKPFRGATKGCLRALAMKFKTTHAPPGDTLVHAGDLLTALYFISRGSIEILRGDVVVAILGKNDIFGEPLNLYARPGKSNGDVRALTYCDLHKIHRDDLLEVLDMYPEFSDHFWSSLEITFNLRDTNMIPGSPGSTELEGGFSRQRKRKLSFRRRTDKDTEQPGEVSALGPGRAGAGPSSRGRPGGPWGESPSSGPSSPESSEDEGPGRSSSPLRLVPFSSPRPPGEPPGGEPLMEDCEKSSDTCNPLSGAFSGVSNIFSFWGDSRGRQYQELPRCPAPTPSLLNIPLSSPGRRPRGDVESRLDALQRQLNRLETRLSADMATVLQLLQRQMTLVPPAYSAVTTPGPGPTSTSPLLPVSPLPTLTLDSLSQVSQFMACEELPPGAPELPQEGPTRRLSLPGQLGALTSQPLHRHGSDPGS
row,Compound,"hERG current change (%, negative = inhibition) at 10uM"
1,CCOC(=O)c1c(NC(=O)c2cc(C(C)C)on2)sc(C(C)=O)c1C,16.7%
2,CCN1CCN(S(=O)(=O)c2ccc(OC)c3ccccc23)CC1,-10.3%
3,Cn1ncc([N+](=O)[O-])c1C(=O)Nc1ccc2c(c1)OCCO2,7.62%
4,COc1ccccc1NC(=O)COc1ccc2c(c1)OCO2,11.1%
5,O=C1c2ccc(Br)cc2C(=O)N1c1ccc(Cl)cn1,3.66%
6,COC(=O)C(C)n1cnc2c(nnn2-c2cccc(Cl)c2)c1=O (stereo not drawn),-13.4%
7,CCN(CC)S(=O)(=O)c1cccc(C(=O)N/N=C/c2ccc(N3CCOCC3)cc2)c1,21.7%
8,O=C(NCc1ccc(F)cc1)C(=O)NCC1OCCN1S(=O)(=O)c1ccc2c(c1)OCCO2 (stereo not drawn),-14.1%
9,O=C(c1ccccc1)N1CCC(c2nc3c(nnn3Cc3ccco3)c(=O)[nH]2)CC1,-32.2%
10,COc1cccc(CNC(=O)Cn2ccc3cc(S(=O)(=O)N4CCCC4)ccc32)c1OC,9.36%
11,COCCCNCCOCCOc1ccc(Cl)cc1C(C)(C)C.O=C(O)C(=O)O,-50.6%
12,COc1ccc(C2CN=NC23CCc2ccccc2C3=O)cc1 (stereo not drawn),-16%
13,CCOC(=O)C(NS(=O)(=O)c1ccc(C)cc1)(C(F)(F)F)P(=O)(OCC(C)C)OCC(C)C (stereo not drawn),4.41%
14,CCCCCC1CC(=O)N(Cc2ccc(Cl)cc2)C(=O)N1 (stereo not drawn),-7.2%
15,Cc1cc(C)c(NC2=NCCCS2)c(C)c1.Cl,8.57%
16,Cc1oc2cc3oc(=O)c(CCC(=O)NCc4ccccn4)c(C)c3cc2c1C,-1.73%
17,COc1ccc(CNCCC(c2ccc(F)cc2)c2ccc(OC)cc2)cc1 (stereo not drawn),-82.3%
18,COc1cccc(/C(C)=N/NC(=O)c2cc(-c3cccnc3)nc3ccccc23)c1,-7%
19,Cc1c(NC(=O)c2ccc(Br)s2)c(=O)n(-c2ccccc2)n1C,14.5%
20,Cc1n[nH]c(C)c1S(=O)(=O)NCCc1ccc(Cl)cc1,5%
21,COc1ccc(CNC(=O)C(OC(=O)c2cccs2)C(C)C)cc1 (stereo not drawn),-11.8%
22,Cc1nc(N2CCOCC2)c(C#N)c2c1COC(C)(C)C2,20%
23,CCCN(C(=O)CSc1nnc2ccccn12)C1CCS(=O)(=O)C1 (stereo not drawn),16.6%
24,COc1cccc(CNC(=O)CCC(=O)N2CC(C)Oc3ccccc32)c1OC (stereo not drawn),5.25%
